Reference: patent US10858342B2, “Bicyclic imidazole derivatives useful for the treatment of renal diseases, cardiovascular diseases and fibrotic diseases” (Boehringer Ingelheim International GmbH, priority 2016, dated 2020)
At least one compound was matched to its structure with a doubt left.

What follows are compounds tested on aldosterone synthase (CYP11B2) (assay: Inhibition of aldosterone synthase (cynomolgus adrenal mitochondria, aldosterone by mass spectrometry)). Conditions: selectivity for aldosterone synthase inhibition over cortisol synthase (CYP11B1) inhibition, fold.
Assay type: biochemical, cynomolgus monkey
Procedure: The aldosterone synthase and cortisol synthase inhibition assays employ cynomolgus adrenal gland mitochondria as the source of aldosterone synthase (CYP11B2) and cortisol synthase (CYP11B1). […] One unit of CYP11B2 and CYP11B1 activity in these preparations is defined as the amount of enzyme that generates 1 pmol of product in one hour under the conditions described.
The compounds of the invention may be evaluated for aldosterone synthase inhibition by the following assay:
Assays are performed in 96-well format in a final volume of 60 microL/well, containing 100 mM potassium phosphate, pH 7.4, 1% (v/v) DMSO, and additionally, 2 μM of corticosterone and 50 units of CYP11B2 activity. Reactions are started by the addition of NADPH to 1 mM and allowed to proceed for 90 minutes at 37° C. Reactions are terminated by the addition of 60 μL of MeCN containing an internal standard for mass spectrometry. One hundred microliters are then transferred to a glass filter plate and centrifuged at 570×g for 5 minutes and the filtrate is collected. Reaction product aldosterone is quantified by mass spectrometry. To determine the assay blank value (0% activity), NADPH is omitted from some reactions.
Dose dependent inhibition is quantified by the inclusion of compound at various concentrations. Maximum activity (100%) is defined by reactions containing NADPH, but without compound.

**Q.** Which Selectivity does the source give for CC(C)Oc1ccc(-n2cnc3c2C(=O)CC(C)(C)C3)cc1 [C-ABQ, 3-(4-Isoporopoxy-phenyl)-6,6-dimethyl-3,5,6,7-tetrahydro-benzoimidazol-4-one] here?
**A.** 360

**Q.** Which Selectivity does the source give for CC1(C)CC(=O)c2c(ncn2-c2cccc(C#N)c2)C1 [C-ABS, 3-(5,5-Dimethyl-7-oxo-4,5,6,7-tetrahydro-benzoimidazol-1-yl)-benzonitrile] here?
**A.** 39

**Q.** With Cc1ccc(-n2cnc3c2C(=O)CC(C)(C)C3)cc1C#N [C-ABY, 5-(5,5-Dimethyl-7-oxo-4,5,6,7-tetrahydro-benzoimidazol-1-yl)-2-methyl-benzonitrile] as the compound, how does the Selectivity read?
**A.** 56

**Q.** Which Selectivity does the source give for O=C1CCCc2ncn(-c3ccc(Cl)c(Cl)c3)c21 [C-ACC, 3-(3,4-Dichloro-phenyl)-3,5,6,7-tetrahydro-benzoimidazol-4-one] here?
**A.** 190

**Q.** For N#C[C@H]1CC[C@H](n2cnc3c2C(=O)CCC3)CC1 [C-ACJ, trans-4-(7-Oxo-5,6-dihydro-4H-benzimidazol-1-yl)cyclohexanecarbonitrile], which Selectivity is on record?
**A.** 440

**Q.** Which Selectivity does the source give for CC1(C)CC(=O)c2c(ncn2C2CCCCC2)C1 [C-ACK, 3-Cyclohexyl-6,6-dimethyl-3,5,6,7etrahydro-benzoimidazol-4-one] here?
**A.** 24

**Q.** With CC1(C)CC(=O)c2c(ncn2C2CCc3cc(Br)ccc3C2)C1 (stereo not drawn) [C-ACM, 3-(6-Bromo-1,2,3,4-tetrahydro-naphthalen-2-yl)-6,6-dimethyl-3,5,6,7-tetrahydro-benzoimidazol-4-on] as the compound, how does the Selectivity read?
**A.** 570

**Q.** How did the Selectivity turn out when CC1(C)CC(=O)c2c(ncn2C2CCC3CCCCC3C2)C1 (stereo not drawn) [C-ACO, 3-(Decahydro-naphthalen-2-yl)-6,6-dimethyl-3,5,6,7-tetrahydro-benzoimdazol-4-one] was run?
**A.** 34

**Q.** With CC(=O)Nc1ccc(Cn2cnc3c2C(=O)CC(C)(C)C3)cc1 [C-ADE, N-[4-(5,5-Dimethyl-7-oxo-4,5,6,7-tetrahydro-benzoimidazol-1-ylmethyl)-phenyl]-acetamide] as the compound, how does the Selectivity read?
**A.** 33

**Q.** CC1(C)CC(=O)c2c(ncn2C2Cc3ccccc3C2)C1 [C-ADG] was tested. Which Selectivity did it give?
**A.** 1300

**Q.** How did the Selectivity turn out when CC1(C)CC(=O)c2c(ncn2[C@H]2CC[C@@H](C#N)CC2)C1 [C-ADL, 4-(5,5-Dimethyl-7-oxo-4,5,6,7-tetrahydro-benzoimidazol-1-yl)-cyclohexanecarbonitrile] was run?
**A.** 360

**Q.** How did the Selectivity turn out when CC1(C)CC(=O)c2c(ncn2Cc2ccc(C(=O)N3CC[C@@H](O)C3)cc2)C1 [C-ADT, 3-[4-((R)-3-Hydroxy-pyrrolidine-1-carbonyl)-benzyl]-6,6-dimethyl-3,5,6,7-tetrahydro-benzoimidazol-4-one] was run?
**A.** 100
